Screen size: about 94,000 compounds; about 6,200 (6.6%) were called active. The inconclusive results got no clear call from the source; some entries with a clear call stand among them for comparison. Calls follow the shape of the dose curve; as a rule, active = well fitted inhibition curve with a large enough effect; inconclusive = small, poorly fitted or top-dose-only effect; inactive = flat fitted curve, though single readings scatter. Potencies beside an inconclusive call are fits to weak or partial responses and may not hold up.
Experiment: Cytotoxic Profiling in HEK 293 Cell Line of Diverse Libraries Using Quantitative High-Throughput Screening; also: nearly all actives have a fitted effect of over 60% in size
Settings: HEK 293 viability, ATP luminescence (CellTiter-Glo), 48-72 h; activity change, negative = cytotoxicity: at 115 µM (top of the series) unless noted; series mostly up to 115 µM
Procedure, shortened: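 Cells seeded first (HEK 293, 250 cells/well), then compound added by pintool. Incubation ran 48 or 72 hr at 37 degree Celsius. CellTiter-Glo was added and luminescence imaged after 10 min at room temperature.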
% is scaled to controls: 0 for no effect and ±100 for the full control effect; potency is read from the fitted curve at half-maximal effect; tags tell the direction and shape of the fitted curve.

| Compound | Potency | activity change, negative = cytotoxicity | outcome |
| --- | --- | --- | --- |
| COc1ccccc1CN1CC[C@H](c2nc3ccc(C(F)(F)F)cc3[nH]2)C1 | active: 31.6 µM | – | – |
| O=C(c1cn(CCCc2ccccc2)nn1)N1CCCC(c2ccccc2)CC1 (stereo not given) | inconclusive: 79.4 µM [inhibitor, partial curve, poor fit] | – | – |
| Cc1c(C(=O)N2CCC3(CC2)Nc2ccccc2NC3=O)cnc2ccnn12 | – | inactive: -19.7% | – |
| O=C(NC1CCOC1)c1ccc2oc(-c3ccc(C(F)(F)F)cc3)nc2c1 (stereo not given) | inconclusive: 17.8 µM [inhibitor, partial curve, poor fit] | – | – |
| CN(CC1CCCN(CCc2cccc(C(F)(F)F)c2)C1)C(=O)c1ccc2[nH]ccc2c1 (stereo not given) | inconclusive: 25.1 µM [inhibitor, full curve, poor fit] | – | – |
| COc1ccc(-c2cc(N3CCCC(NC(=O)c4ccccn4)C3)n[nH]2)cc1 (stereo not given) | inconclusive: 50.1 µM [inhibitor, partial curve, poor fit] | – | – |
| N#Cc1ccccc1CN1CCN(c2nccc(CCC(F)(F)F)n2)CC1 | inconclusive: 89.1 µM [inhibitor, single point] | – | – |
| COCc1cc(CNC(=O)c2cn(C3CCC(N)CC3)nn2)[nH]n1 (stereo not given) | inconclusive: 31.6 µM [inhibitor, single point] | – | – |
| Cc1ccsc1CN1CCCC(c2nc(-c3cccnc3)no2)CCNC(=O)CC1 (stereo not given) | inconclusive: 44.7 µM [inhibitor, partial curve] | – | – |
| CNC(=O)c1cc2cc(-c3c(C)noc3C)nc(-c3cnn(C)c3)c2o1 | inconclusive: 70.8 µM [inhibitor, partial curve] | – | – |
| O=C(CNC(=O)c1cccc(-c2ccsc2)c1)NC1CC1 | inconclusive: 70.8 µM [inhibitor, partial curve, poor fit] | – | – |
| CNC(=O)c1cc(C2CC2)nc2onc(C3CCN(C(=O)c4cccc(C(F)(F)F)c4)CC3)c12 | inconclusive: 79.4 µM [inhibitor, partial curve] | – | – |
| O=C(c1ccccn1)N1CCC2(CC1)CC(Cc1ccccc1)CCO2 (stereo not given) | inconclusive: 79.4 µM [inhibitor, partial curve, poor fit] | – | – |
| COc1cccc(CN2CCCCCCN(C)C(=O)[C@@H]3CCC[C@@H]32)n1 | inconclusive: 50.1 µM [inhibitor, partial curve, poor fit] | – | – |
| O=C(NCC12CCCC=C1N(Cc1ccccc1)C(=O)CC2)c1ccncc1 (stereo not given) | inconclusive: 100 µM [inhibitor, single point] | – | – |
| Cc1cccc2ncc(C(=O)N3CCC4(CCNC(=O)CC4)CC3)c(=O)n12 | inconclusive: 50.1 µM [inhibitor, partial curve, poor fit] | – | – |
| O=C(NCCc1ccc(Cl)cc1)c1nc2sccn2c1-c1ccc(C(F)(F)F)cc1 | active: 39.8 µM | – | – |
| CN(C)CCNC(=O)c1nc2nc(-c3ccccc3)c(-c3ccccc3F)cc2n1C | active: 50.1 µM | – | – |
| COc1ccccc1-c1cccc(C(=O)N2CCC[C@H]2C(=O)N2CCN(C(C)=O)CC2)c1 | – | inactive: -5.73% | – |
| O=C(c1cccc(Cl)c1)N1CCC2(CC1)CC(=O)N(c1ccccc1)c1ccccc1O2 | inconclusive: 56.2 µM [inhibitor, partial curve, poor fit] | – | – |

| Compound | Potency | activity change, negative = cytotoxicity | outcome |
| --- | --- | --- | --- |
| CC(=O)N1Cc2ccccc2CC2(CCCCN2CC2CCOCC2)C1 (stereo not given) | – | – | inactive |
| COc1ccc(OC)c(NC(=O)CN2C(=O)C(c3ccccc3)=NC23CCCC3)c1 | inconclusive: 79.4 µM [inhibitor, single point] | – | – |
| O=C(Nc1ccccc1)c1cc2n(n1)CC(c1ccc(Cl)cc1)OC2 (stereo not given) | inconclusive: 56.2 µM [inhibitor, partial curve, poor fit] | – | – |
| O=C1Nc2ccccc2CN(Cc2ccccc2)C12CCNC2 (stereo not given) | inconclusive: 100 µM [inhibitor, partial curve] | – | – |
| Cc1noc(C)c1Cc1ccc(C(=O)NC2CCc3n[nH]c(=O)n3CC2)o1 (stereo not given) | inconclusive: 39.8 µM [inhibitor, single point] | – | – |
| O=C(Cn1ccn2nc(-c3ccccc3)c(CO)c2c1=O)Nc1ccc(F)c(Cl)c1 | inconclusive: 89.1 µM [inhibitor, single point] | – | – |
| Cc1nc(C)c(C(=O)N2CCc3onc(-c4cccc(F)c4)c3C2)s1 | – | inactive: -24.9% | – |
| Cn1ncc2c(C(=O)NCC#N)cc(-c3ccc(F)cc3)nc21 | inconclusive: 112 µM [inhibitor, partial curve, poor fit] | – | – |
| Cc1ccc(CN2CCC3(CC2)Cc2ccccc2CNC3=O)cc1 | inconclusive: 100 µM [inhibitor, single point] | – | – |
| Cc1ccc(CNC[C@H]2O[C@H](Cc3cc(CN(C)Cc4ccccc4)on3)CC[C@@H]2O)cc1 | inconclusive: 79.4 µM [inhibitor, partial curve, poor fit] | – | – |
| COCCNc1ccc2nnc(-c3ccccn3)n2n1 | – | inactive: 0.218% [at 230 µM] | – |
| COc1ccc(CN2CCC(O)(c3csc(CN4CCc5ccccc5C4)n3)CC2)cc1 | inconclusive: 50.1 µM [inhibitor, partial curve, poor fit] | – | – |
| O=S(=O)(c1ccc2c(c1)CCC2)N1CCCC1c1nncn1C1CCCC1 (stereo not given) | – | inactive: -2.98% | – |
| CCOc1cccc(CN2CCc3nc(N4CCN(C)CC4)[nH]c(=O)c3CC2)c1 | inconclusive: 70.8 µM [inhibitor, single point] | – | – |
| Cc1nn(-c2ccc(C(F)(F)F)cc2)c(C)c1[C@@H]1C=C[C@@H](NC(=O)Nc2cccc(C#N)c2)C1 | inconclusive: 22.4 µM [inhibitor, full curve, poor fit] | – | – |
| COc1cc(NC(=O)NC[C@H]2O[C@@H](CO)[C@@H](O)[C@H]2N2CCCCC2)cc(OC)c1 | – | inactive: 4.3% | – |
| NCCCC(=O)N1CCC2(CC1)CN([S+](=O)([O-])c1ccccc1)CCO2 | – | inactive: 0.281% | – |
| O=C1OC[C@@H]2CCN(Cc3ccc(F)cc3)Cc3ccc(F)cc3N12 | inconclusive: 126 µM [inhibitor, single point] | – | – |
| O=C(NCc1ccc(F)cc1)c1nc2sccn2c1-c1ccc(F)cc1 | inconclusive: 89.1 µM [inhibitor, single point] | – | – |
| O=C(NCCc1ccccc1)Nc1cnc2c(c1)CCC2 | – | – | inactive |

Reference: PubChem BioAssay AID1345083 (National Center for Advancing Translational Sciences (NCATS), 2018)
